From ChEMBL document CHEMBL1201862, “PubChem BioAssay data set” (2004)
Values joined by “and” are separate entries in the source; they are usually repeats but may differ in a detail not shown here. Equal entries are not always repeated.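 Cultured in 96-well plates, cells were exposed to test compound for 48 hours across five concentrations. GI50 marks 50% less growth.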 Active and inactive are the calls of the source. Rule as the data show it: active = GI50 up to about 1.1 µM and inactive = higher.

tested on: NCI-H322M; assay: NCI-60 cell line screen, 48 h

SMILES	GI50
O=C(O)C(O)(c1ccc(-c2ccccc2)cc1)c1ccc(-c2ccccc2)cc1	inactive: 27.9 µM
CC(C)(C)c1ccc(O)c(CN(Cc2cc(C(C)(C)C)ccc2O)C2CCCCC2)c1	inactive: 16.3 µM
CCCC(=O)NC1CCc2cc(OC)c(OC)c(OC)c2-c2ccc(OC)c(=O)cc21 (centres undefined)	active: 0.0112 µM
COc1ccc(-c2cc(-c3ccccc3)nc(N)n2)c(O)c1	inactive: > 94.4 µM
Cc1cc2c3c(c1)S(=O)(=O)c1cc(Cl)ccc1N3CCC2	inactive: 70 µM
CCOC(=O)c1cc(-c2ccc([N+](=O)[O-])cc2)c([N+](=O)[O-])[nH]1	inactive: > 10 µM
CC(=O)O[C@H]1CC2C(C3CC[C@H](C(C)CCC(N)=O)[C@]31C)[C@H](OC(C)=O)C[C@@H]1CC3(CC[C@]21C)OOC1(CCC(C)CC1)OO3 (some centres undefined)	inactive: 4.76 µM and inactive: 8.51 µM
CC(C)(C)OC(=O)N[C@H]1CC(O)c2ccccc2N(CC(=O)O)C1=O (some centres undefined)	inactive: > 100 µM
NC(=O)C(=CNC(=S)Nc1ccc(Cl)c(Cl)c1)C(N)=O	inactive: > 100 µM
O=C(CC(O)(C(F)(F)F)C(F)(F)F)C(CCCl)C(O)(C(F)(F)F)C(F)(F)F (centres undefined)	inactive: 31 µM
CCOC(=O)/C(=C\c1ccc(C#N)cc1)C(C)=O	inactive: 28.4 µM
COC(=O)C(=Cc1cc(OC)c(OC)c(OC)c1-c1cc2c(cc1C(C)=O)OCO2)C(=O)OC	inactive: 36.5 µM
CCCCCCCCCCCCCCCCNc1nc(=O)n(C2CC(O)C(COP(=O)(O)OC3CC(n4cc(F)c(=O)[nH]c4=O)OC3CO)O2)cc1F (centres undefined)	active: 0.286 µM
C=C1CC[C@H]2C(=O)OC(c3ccoc3)C[C@]2(C)C/C=C\C=C/1C(=O)OC (some centres undefined)	inactive: > 25 µM
COc1cc2nc(-c3cccs3)nc(Cl)c2cc1OC	inactive: > 100 µM
O=C(CCNC(=O)OCc1ccccc1)OCCCNC(=O)OCc1ccccc1	inactive: > 100 µM
COc1cc(C2c3cc4c(cc3OC3(O)COC(=O)C23)OCO4)cc(OC)c1OC (centres undefined)	inactive: 44.5 µM
COc1ccc(/N=N/C(=O)NC(CC(C)C)C(=O)NC(CC(C)C)C(=O)O)cc1 (centres undefined)	inactive: > 100 µM
Cc1ccc([C@@H]2[C@@H](C(=O)c3ccccn3)[C@H](c3ccc(C)cc3)C[C@](O)(c3ccccn3)[C@H]2C(=O)c2ccccn2)cc1	inactive: 1.46 µM
CC1(C)Oc2ccc3c(=O)c4ccccc4oc3c2C1C(=O)O (centres undefined)	inactive: > 100 µM
COc1cc(C2C3C=CC=C4CC=CC(=C43)C3CCC(=O)N32)cc(OC)c1OC (centres undefined)	inactive: > 100 µM
CC(=O)c1ccc2c3c1[C@@H]1O[C@@H]1c1cccc(c1-3)[C@@H]1O[C@H]21	inactive: 15.1 µM

SMILES	GI50
Nc1nc(CC2(O)CCCCC2)cc(-c2ccccc2)n1	inactive: > 55.8 µM
CCOC(=O)c1sc(Nc2cc(Cl)ccc2Cl)nc1C	inactive: > 100 µM
Cc1ccc(/N=N/c2c(O)c(C(=O)O)cc3ccccc23)cc1C	inactive: > 100 µM
COC1/C=C/C(C)C(C(C)C(OC)C(C)CCC(=O)C(C)C(CC(=O)O)OC)OC(=O)/C=C/C=C(\C)CC(OC)CC2=CC(=O)O[C@H](C2)C(C)C(OC)CC(OC)/C=C/C(C)C(OC)C1 (some centres undefined)	inactive: 1.75 µM
O=C1Cc2c(-c3ccccc3)cc(-c3ccc(Cl)cc3)nc2-c2ccccc2N1	inactive: 4.01 µM
C=C1C2Oc3ccccc3C1N(c1ccccc1)O2 (centres undefined)	inactive: > 100 µM
C=CCC1(c2ccc(OC)cc2)C=CC(=O)CC1 (centres undefined)	inactive: > 100 µM
COc1ccc(C(=O)C(C(=O)CCC(=O)Nc2ccc(C)c(C)c2)c2ccc(OC)cc2)cc1 (centres undefined)	inactive: > 100 µM
NC1CC(=O)c2c(Cl)sc(Cl)c21 (centres undefined)	inactive: 12.2 µM
Fc1ccc(C(OCCN2CCC3CCC(C2)N3C/C=C/c2cccnc2)c2ccc(F)cc2)cc1 (centres undefined)	inactive: 13.6 µM
C=C(C)c1nc(C#N)c(N)o1	inactive: > 100 µM
CC(C)[Si](OCC/C=C/C1CCC(=O)C1C(O)C1CCCCC1)(C(C)C)C(C)C (centres undefined)	inactive: 15.4 µM
Cc1ccc2c(c1)SC1=Nc3sc4cc(C)ccc4[n+]3CN12	inactive: 17.8 µM
CC1(c2ccc(F)cc2)CC(c2ccc(F)cc2)=C(C#N)C(=C(C#N)C#N)N1 (centres undefined)	inactive: 14.6 µM
CC(=O)C(=C(I)I)c1ccccc1	inactive: 18.3 µM
C=CC(CBr)CCC(Br)C(C)(C)Br (centres undefined)	inactive: > 10 µM
Cn1cc(C(=O)c2ccccc2)cc(C(=O)c2ccccc2)c1=O	inactive: > 100 µM
N#Cc1ccccc1NC(=O)C(=O)C(C(=O)c1ccccc1-c1ccccc1)C1OC(=O)c2ccccc21 (centres undefined)	inactive: 15.5 µM
OCC(Cn1cncn1)(c1ccc(F)cc1F)n1cncn1 (centres undefined)	inactive: > 100 µM
N#CC(C#N)=Cc1ccc(C(O)P(=O)(O)O)cc1 (centres undefined)	inactive: > 100 µM
O=C1NCC2(CCN(Cc3ccccc3)CC2)N1	inactive: > 100 µM
OCC1=C[C@@](COCc2ccccc2)(OCc2ccccc2)[C@@H](OCc2ccccc2)[C@@H]1OCc1ccccc1	inactive: 18.2 µM

SMILES	GI50
N#Cc1c(N2CCOCC2)ncn(-c2ccc(Cl)cc2)c1=O	inactive: > 100 µM
OC1(c2ccccc2)CSc2ncnn21 (centres undefined)	inactive: > 100 µM
COc1cc(S(=O)(=O)Nc2ccc(-c3csc(N)n3)cc2)ccc1Cl	inactive: 20.8 µM
CCOC(=O)C(=O)Nc1c(CC)cccc1C(C)C	inactive: > 100 µM
O=C(NC1(C(=O)O)CC1c1ccccc1)c1ccccc1 (centres undefined)	inactive: > 100 µM
COc1ccc2o/c(=N\c3ccc(F)cc3)c(C(N)=O)cc2c1	inactive: 25.4 µM
CC(=O)OC1COC(N2C(=O)C(=O)c3cc(Br)c([N+](=O)[O-])cc32)C(OC(C)=O)C1OC(C)=O (centres undefined)	inactive: > 100 µM
Cc1ccc(OCC2OC(n3cnc4c(N(C)C)nc(Br)nc43)CC2Oc2ccc(C)cc2)cc1 (centres undefined)	inactive: > 100 µM
CCN(CC)CCNC(=O)c1cc2cc(NC(=O)c3cc4cc(N)ccc4[nH]3)ccc2[nH]1	inactive: 21.6 µM
O=S(=O)(c1cc(Cl)ccc1Cl)N1CCN(c2cccc(Cl)c2)CC1	inactive: > 100 µM
C[C@H]1C2Cc3cc(O)ccc3[C@@]1(C)CCN2CCc1ccc(N)cc1	inactive: 32.7 µM
O=C1NC2C3CC(OCc4ccccc4)(OCc4ccccc4)C2OC3O1 (centres undefined)	inactive: > 50 µM
O=c1oc2ccccc2c2c(=O)c3ccc(OC/C(=N/O)c4ccc(Cl)cc4)cc3oc12	inactive: 7.55 µM
C[C@H](CCC(=O)O)[C@H]1CC[C@H]2[C@@H]3[C@@H](O)C[C@@H]4C[C@H](O)CC[C@]4(C)[C@H]3CC[C@]12C	inactive: > 100 µM
O=[N+]([O-])C1C2C=CC(C2)[C@H]1c1ccccc1Cl (some centres undefined)	inactive: > 100 µM
COc1cc(CC(C)N[C@@H](C)c2ccccc2)cc(OC)c1 (some centres undefined)	inactive: > 100 µM
Cn1cc(C(=O)NCCC(=N)N)cc1NC(=O)C1=[N+](C)C=C(NC(=O)c2cccc(C(=O)NC3=CC(C(=O)Nc4cc(C(=O)NCCC(=N)N)cn4C)=[N+](C)C3)c2)C1	inactive: > 100 µM
NC(=O)c1ccc2c(c1)S(=O)(=O)c1ccccc1C2=O	inactive: > 100 µM
N=C(N)SCCSC(=N)N	inactive: > 100 µM
COc1ccccc1-c1cc(O)c2c(C)ccnc2n1	inactive: 47.1 µM
